This is an account of results in PubChem BioAssay (NCATS).

This assay in a line: qHTS Assay for Lipid Storage Modulators (AID 1519). The note with it: Drosophila S3 cells, BODIPY lipid droplet/cell ratio, laser cytometry, cells loaded with oleic acid. An excerpt:
NIH Molecular Libraries Probe Production Centers Network [MLPCN]
NIH Chemical Genomics Center [NCGC]
Assay Submitter (PI): Beller, Mathias; Max-Planck-Institut fur Biophysikalische Chemie
NCGC Assay Overview: Storing lipids as a reservoir for energy or the anabolism of elementary metabolites is a common feature of probably all cells and is conserved from bacteria to humans. The universal cellular lipid storage organelle is the so-called lipid storage droplet (LD). Although ubiquitous, LDs share a simple structure composed of a hydrophobic core that harbors the storage lipids, which is shielded by a droplet-specific phospholipid monolayer to which proteins are attached. The current model of LD biogenesis involves an incorporation of the lipid core into the membrane leaflets of the endoplasmic reticulum (ER) followed by a subsequent budding-like maturation of a LD, which ultimately pinches off. Once released, LD volume can increase by localized lipogenesis or fusion of existing droplets. Storage lipids are re-mobilized enzymatically by lipase activity. Lipase regulation in the adipocyte is heavily studied and involves multiple components including catecholamine signaling, the LD-associated proteins Perilipin and comparative gene identification-58 (CGI-58) and at least two lipases named hormone sensitive lipase (HSL) and adipocyte triglyceride lipase (ATGL). LD regulation outside of the adipocyte is poorly understood and only few components are known. However, there is an urgent need to learn more about ectopic fat depots as mislocalized storage of lipids, for example in the liver or muscle, is an eminent health problem associated with insulin resistance or the metabolic syndrome. We developed a laser-scanning cytometer assay to enable 1,536-well screening and combined the results of the small molecules screen with an RNAi database based on lipid storage.
NCGC Assay Protocol Summary:
We dispensed 4 uL of cells at 1.25 x 10^6 cells/mL into LoBase Aurora COC 1,536-well plates (black walled, clear bottom) with a bottle-valve solenoid-based dispenser (Aurora) to obtain 5,000 cells/well. Triacsin C (Sigma-Aldrich T-4540), an inhibitor of long-chain fatty acyl CoA synthetase that blocks synthesis of triglycerides, was used as a positive control for lipid under-storage. A total of 23 nL of compound solution of different concentrations were transferred to the assay plates using a Kalypsys pin tool equipped with a 1,536-pin array containing 10-nL slotted pins (FP1S10, 0.457-mm diameter, 50.8 mm long; V&P Scientific). One microliter of oleic acid (400 uM) was added, and the plate was lidded with stainless steel rubber gasket lined lids containing pinholes. […] Fluorescence was detected by excitation of the fluorophores with a 488-nm laser on an Acumen Explorer (TTP Lab Tech). The total intensity in channel 1 (500-530 nm) reflected lipid droplet accumulation. […] The ratio of the total intensity in PMT channel 1 over total intensity of channel 3 was also calculated. Percent activity was computed relative to an internal control (100% inhibited lipid droplet deposition due to the presence of 20 uM Triacsin C), which was added to 32 wells/plate.

Setting [1] is: measured here: cell count channel max response.
[2] abbreviates: measured here: lipid (BODIPY) channel AC50.
[3] abbreviates: measured here: lipid channel max response.
The mark [4] stands for this setting: measured here: cell number channel AC50.

The structures appear in SMILES notation. Values joined by “and” are separate entries in the source; they are usually repeats but may differ in a detail not shown here. Identical values can stand only once. The list shows a part of the results. Further columns of the screen follow, without active or inactive calls. The list favours compounds with an active or inconclusive main result. The note in brackets gives the kind of curve behind each potency; many fits are weak.
Tags give direction and shape of the fitted curve.

As for `COc1cc2occc2c2oc(=O)ccc12`, the max response came to 26.5% under setting [1] and 41.3% under setting [3]. Also, the AC50 under setting [2] is 4.47 µM [rising, full curve].
As for `CC(C)[C@]1(NC(=O)[C@@H]2C=C3c4cccc5[nH]cc(c45)C[C@H]3N(C)C2)O[C@@]2(O)C3CCCN3C(=O)[C@H](Cc3ccccc3)N2C1=O` (some centres not stated), the max response under setting [1] was 78.9% and the max response under setting [3] worked out at 100%. Further, the AC50 under setting [4] is 15.8 µM [rising, partial curve] and the AC50 under setting [2] is 17.8 µM [rising, partial curve].
Consider `COc1ccc(NC(=O)N2CC3(CCN(C(=O)Oc4ccccc4)CC3)C2)cc1`, for which the max response under setting [1] was found to be 17.2% and the max response under setting [3] came out at 30.6%. The half-maximal activity concentration (AC50) is 0.0891 µM [rising, full curve, poor fit] under setting [4] and 0.2 µM [rising, full curve, poor fit] under setting [2].
In the case of `O=[N+]([O-])c1cc(O)c(O)c([N+](=O)[O-])c1`, the max response turned out to be 40.7% under setting [1] and 50.4% under setting [3]. Moreover, the AC50 under setting [4] was 25.1 µM [rising, partial curve, poor fit] and the concentration at half-maximal activity (AC50) under setting [2] was 25.1 µM [rising, partial curve, poor fit].
With `C[C@H](N)Cc1cnc[nH]1`, the max response is, setting by setting: under setting [1], 53.2%; under setting [3], 73.2%. Further, the AC50 reads like this: under setting [4], 35.5 µM [rising, single point]; under setting [2], 35.5 µM [rising, partial curve, poor fit].
In the case of `CC(C)[C@@]1(NC(=O)[C@@H]2C[C@H]3c4cccc5[nH]cc(c45)C[C@@H]3N(C)C2)O[C@@]2(O)[C@H]3CCCN3C(=O)[C@H](Cc3ccccc3)N2C1=O`, the max response was 52.6% and 39.9% under setting [1]; 59.9% and 46.7% under setting [3]. Besides, the AC50 under setting [4] was 4.47 µM [rising, full curve, poor fit] and 7.94 µM [rising, partial curve, poor fit]; the AC50 under setting [2] was 3.98 µM [rising, full curve, poor fit].
Consider `NC(=NCCc1ccc(I)cc1)SCCCc1cnc[nH]1`, for which the max response reads like this: under setting [1], 101%; under setting [3], 128%. The AC50 reads like this: under setting [4], 28.2 µM [rising, partial curve]; under setting [2], 28.2 µM [rising, partial curve].
On to `COc1c2ccoc2cc2oc(=O)ccc12`, for which the max response under setting [1] is 15.4% and 117%; the max response under setting [3] was 37.1% and 156%. Besides, the AC50 was 1.26 µM [rising, full curve] under setting [4]; 22.4 µM [rising, partial curve, poor fit] and 1.12 µM [rising, full curve] under setting [2].
In the case of `Oc1ccc2c3c1O[C@H]1c4oc5ccccc5c4C[C@]4(O)[C@H](C2)N(CC2CC2)CC[C@@]314`, the max response runs as follows: under setting [1], 26.7%; under setting [3], 38.8%. The AC50 under setting [2] was 0.316 µM [rising, full curve, poor fit].
For `O[C@@H](Cc1ccncc1)C(Cl)(Cl)Cl`, the max response by setting is: under setting [1], 97.9%; under setting [3], 122%. For the same molecule, the concentration at half-maximal activity (AC50) under setting [4] is 31.6 µM [rising, partial curve, poor fit] and the AC50 under setting [2] is 31.6 µM [rising, partial curve, poor fit].
For `CCCCCC[C@H]1C(=O)O[C@H](C)[C@H](NC(=O)c2cccc(NC=O)c2O)C(=O)O[C@@H](C)[C@H]1OC(=O)CC(C)C`, the max response under setting [1] is -54.5% and the max response under setting [3] is -104%. Besides, the AC50 reads like this: under setting [4], 0.224 µM [falling, full curve]; under setting [2], 0.158 µM [falling, full curve].

A word on the AC50: it is the concentration giving half of the maximal activity seen.
